According to publication PMC6018503:
Read-outs that look alike come from different tables or passages of the source. No constants are given. Whether binding was seen depends on the method and setting. For some of these results: Binding seen in cells or lysates may run through a third protein. Some entries that bind do so weakly or less than the wild type. Each block holds one molecule with its values, some of them ahead of it.

Amino acid sequences for entries named in this document (tags omitted). A change or cut given only in a name is not applied to a line headed by its entry.
UniProt Q9FXM3: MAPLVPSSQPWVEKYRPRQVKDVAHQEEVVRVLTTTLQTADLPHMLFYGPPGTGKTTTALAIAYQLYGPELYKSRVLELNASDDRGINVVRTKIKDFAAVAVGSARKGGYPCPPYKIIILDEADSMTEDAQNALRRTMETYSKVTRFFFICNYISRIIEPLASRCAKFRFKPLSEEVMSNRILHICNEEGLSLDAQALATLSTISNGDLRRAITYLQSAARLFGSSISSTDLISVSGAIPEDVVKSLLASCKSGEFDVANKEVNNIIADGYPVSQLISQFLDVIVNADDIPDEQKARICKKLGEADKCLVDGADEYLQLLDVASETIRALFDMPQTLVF
UniProt Q93ZX1: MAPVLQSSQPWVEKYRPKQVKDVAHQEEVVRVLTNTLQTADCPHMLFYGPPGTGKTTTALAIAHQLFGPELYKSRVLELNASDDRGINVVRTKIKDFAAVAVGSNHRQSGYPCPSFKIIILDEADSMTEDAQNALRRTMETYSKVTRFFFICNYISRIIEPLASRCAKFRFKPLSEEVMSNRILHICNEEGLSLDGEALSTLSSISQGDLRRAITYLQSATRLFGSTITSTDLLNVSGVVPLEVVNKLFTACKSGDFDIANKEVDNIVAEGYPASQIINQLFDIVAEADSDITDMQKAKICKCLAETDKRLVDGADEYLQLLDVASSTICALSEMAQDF

Key:
[1] = molecular target: T1, AtRFC1 (Arabidopsis thaliana) (UniProt Q9C587); experiment: split reporter; BiFC in tobacco leaf epidermal cells with truncated AtRFC proteins, pairs that include AtRFC1 or a truncated AtRFC1; whether the other small subunits were co-expressed is not said
T1 sequence: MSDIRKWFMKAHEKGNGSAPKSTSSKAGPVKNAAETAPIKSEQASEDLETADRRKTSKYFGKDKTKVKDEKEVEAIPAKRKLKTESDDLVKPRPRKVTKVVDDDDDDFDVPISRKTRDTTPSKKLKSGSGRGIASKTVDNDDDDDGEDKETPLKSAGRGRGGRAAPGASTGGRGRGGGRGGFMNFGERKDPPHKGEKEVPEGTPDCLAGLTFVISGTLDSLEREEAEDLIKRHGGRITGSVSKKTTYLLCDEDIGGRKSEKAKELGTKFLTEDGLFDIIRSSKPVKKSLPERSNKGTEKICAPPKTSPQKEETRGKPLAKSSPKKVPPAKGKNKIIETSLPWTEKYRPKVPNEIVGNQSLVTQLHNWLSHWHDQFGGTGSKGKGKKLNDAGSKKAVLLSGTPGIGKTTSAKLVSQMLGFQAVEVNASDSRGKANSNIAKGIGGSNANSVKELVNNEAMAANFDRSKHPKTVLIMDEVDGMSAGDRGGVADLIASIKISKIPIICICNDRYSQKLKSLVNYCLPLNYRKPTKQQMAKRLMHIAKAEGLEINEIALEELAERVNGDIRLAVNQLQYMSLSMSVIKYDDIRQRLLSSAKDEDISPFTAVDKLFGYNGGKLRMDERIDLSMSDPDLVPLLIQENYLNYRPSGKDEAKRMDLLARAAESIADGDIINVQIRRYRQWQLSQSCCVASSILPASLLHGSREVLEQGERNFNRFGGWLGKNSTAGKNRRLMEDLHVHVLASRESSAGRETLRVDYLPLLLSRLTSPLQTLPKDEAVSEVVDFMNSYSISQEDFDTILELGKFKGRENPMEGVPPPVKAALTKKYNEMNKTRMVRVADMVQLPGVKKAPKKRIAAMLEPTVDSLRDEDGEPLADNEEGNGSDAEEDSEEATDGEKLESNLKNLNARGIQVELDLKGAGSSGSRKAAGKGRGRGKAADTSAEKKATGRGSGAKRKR

[2] = molecular target: T2, AtRFC2 (Arabidopsis thaliana) (UniProt Q9CAM7); experiment: split reporter; BiFC; YFP^N (aa 1-155) and YFP^C (aa 156-239) fusions (pCAMBIA-SPYNE, pCAMBIA-SPYCE) co-expressed in tobacco (Nicotiana benthamiana) leaf epidermal cells through Agrobacterium GV3101; confocal microscopy of YFP; only the two named fusions
T2 sequence: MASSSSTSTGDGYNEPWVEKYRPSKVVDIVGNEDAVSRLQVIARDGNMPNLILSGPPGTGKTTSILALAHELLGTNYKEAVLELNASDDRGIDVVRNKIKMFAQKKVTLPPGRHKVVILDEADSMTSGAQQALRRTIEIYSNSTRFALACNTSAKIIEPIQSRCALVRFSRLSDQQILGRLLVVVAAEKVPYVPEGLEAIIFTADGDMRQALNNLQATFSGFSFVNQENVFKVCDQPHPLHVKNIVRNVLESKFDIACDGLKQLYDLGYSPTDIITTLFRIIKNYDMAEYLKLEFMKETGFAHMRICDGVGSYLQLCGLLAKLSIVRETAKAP

[3] = molecular target: T3, AtRFC5 (Arabidopsis thaliana) (UniProt Q8VXX4); experiment: as above
T3 sequence: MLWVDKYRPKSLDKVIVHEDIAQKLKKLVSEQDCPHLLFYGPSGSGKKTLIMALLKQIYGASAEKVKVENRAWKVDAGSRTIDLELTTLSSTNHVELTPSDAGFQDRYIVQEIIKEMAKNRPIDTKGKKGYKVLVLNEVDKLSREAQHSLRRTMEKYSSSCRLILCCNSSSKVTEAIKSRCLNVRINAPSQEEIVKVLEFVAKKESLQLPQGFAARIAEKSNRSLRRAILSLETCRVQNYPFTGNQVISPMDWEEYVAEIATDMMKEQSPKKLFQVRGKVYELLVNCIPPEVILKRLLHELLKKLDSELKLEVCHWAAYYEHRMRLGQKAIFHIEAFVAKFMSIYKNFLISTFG

[4] = molecular target: T4, OsRFC5 (rice (Oryza sativa)) (UniProt Q852K3); experiment: two-hybrid; yeast two-hybrid; full-length ORFs in pGADT7 (AD) and pGBKT7 (BD); co-transformed strains spotted on SD-L-T and SD-L-T-H-A plates; empty AD or BD plasmids as negative controls
T4 sequence: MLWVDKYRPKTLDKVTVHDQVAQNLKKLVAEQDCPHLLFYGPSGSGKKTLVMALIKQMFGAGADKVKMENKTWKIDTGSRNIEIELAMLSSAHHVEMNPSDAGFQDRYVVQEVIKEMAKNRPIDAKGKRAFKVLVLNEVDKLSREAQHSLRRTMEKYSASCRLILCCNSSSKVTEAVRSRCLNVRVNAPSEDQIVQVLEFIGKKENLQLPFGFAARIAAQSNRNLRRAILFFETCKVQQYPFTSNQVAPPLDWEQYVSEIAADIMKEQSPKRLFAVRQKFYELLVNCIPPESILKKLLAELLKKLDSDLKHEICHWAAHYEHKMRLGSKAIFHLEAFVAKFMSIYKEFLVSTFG

[5] = molecular target: T5, OsRFC4 (rice (Oryza sativa)) (UniProt Q7XRX1); experiment: as above
T5 sequence: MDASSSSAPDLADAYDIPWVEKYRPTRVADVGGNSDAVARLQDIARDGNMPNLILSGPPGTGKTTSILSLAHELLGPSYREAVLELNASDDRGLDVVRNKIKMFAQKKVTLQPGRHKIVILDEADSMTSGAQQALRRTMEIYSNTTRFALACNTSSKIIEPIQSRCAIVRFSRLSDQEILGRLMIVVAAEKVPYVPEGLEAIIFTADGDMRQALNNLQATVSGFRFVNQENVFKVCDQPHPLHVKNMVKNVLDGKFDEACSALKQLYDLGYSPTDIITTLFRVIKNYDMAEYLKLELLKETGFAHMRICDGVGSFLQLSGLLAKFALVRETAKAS

[6] = molecular target: OsRFC2 (rice (Oryza sativa)) (UniProt Q9FXM3); experiment: as above
[7] = molecular target: T6, OsRFC3 (rice (Oryza sativa)) (UniProt Q6YZ54); experiment: as above
T6 sequence: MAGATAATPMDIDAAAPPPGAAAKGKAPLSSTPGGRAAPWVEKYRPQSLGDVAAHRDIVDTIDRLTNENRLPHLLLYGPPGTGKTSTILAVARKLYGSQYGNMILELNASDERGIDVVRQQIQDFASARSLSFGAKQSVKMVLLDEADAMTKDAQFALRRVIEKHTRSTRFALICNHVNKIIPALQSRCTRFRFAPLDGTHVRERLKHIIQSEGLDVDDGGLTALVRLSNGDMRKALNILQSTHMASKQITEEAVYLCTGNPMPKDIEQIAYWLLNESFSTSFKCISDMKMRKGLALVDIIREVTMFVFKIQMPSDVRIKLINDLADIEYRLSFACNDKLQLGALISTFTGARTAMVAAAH

[8] = molecular target: AtRFC4 (Arabidopsis thaliana) (UniProt Q93ZX1); experiment: split reporter; BiFC; YFP^N (aa 1-155) and YFP^C (aa 156-239) fusions (pCAMBIA-SPYNE, pCAMBIA-SPYCE) co-expressed in tobacco (Nicotiana benthamiana) leaf epidermal cells through Agrobacterium GV3101; confocal microscopy of YFP; only the two named fusions
[9] = molecular target: T2, AtRFC2 (Arabidopsis thaliana); experiment: as above; remark: listed apart in the source
[10] = molecular target: T3, AtRFC5 (Arabidopsis thaliana); experiment: as above; remark: listed apart in the source

binding [1]: no binding
binding [2]: no binding
binding [3]: no binding
Molecule: RFC4 Δ300–339 (from UniProt Q93ZX1 1-299) (domain or fragment)

binding [1]: no binding
binding [2]: binds
binding [3]: binds
Molecule: AtRFC4 Δ320–339 (from UniProt Q93ZX1 1-319) (domain or fragment)

binding [4]: binds
binding [5]: binds
binding [6]: binds
binding [7]: binds
binding [8]: binds
binding [9]: binds
binding [10]: binds
B1: OsRFC1 (protein, UniProt Q2R2B4 1-1021)
chain: MSSDIRKWFMKAQDKNGGAAKPAGTTALAKKPVLSIPEKPSAAPSMAACDQDCSARRKTSKYFASKTEKEEDTSAGKGTGRGLPKRKLQKVSDELEDDMKPLPAKEVHKEEEDDDDDDFVAPSKRKTPVKPPPSKKLKGASTAEAHGKTGLDDDNEDKMDEDAKTPSKASGSGRGRGRGRGRGGRGAGAAHGKTIGLDDDGEEDKMDEDAKTPSKAAGRGRGGASGGRGRGGGGRGFMNFGERKDPPHKGEKEVPEGAPDCLTGLTFVISGTLDSLEREEATDLIKRYGGRVTGSISKKTNYLLADEDVGGVKSNKAKELGVPFLTEDGLFDMIRKSKPAKATVAKHQSDKNSEKQQKSPMKSSPVKVERRDGNQITTGKNISPKSNKGSASIDNQKVNIVDRGSLQWTEKYRPKVPNDIVGNQSMVKQLHDWLRSWEDQFLHSGQKGKGKKQADSGAKKAVLLSGPPGIGKTTTAKVVSQMLGLQAIEVNASDSRGKADSKIEKGVGGSTSNSIKELISNATLNYSNNRLKRPKAVLVMDEVDGMSAGDRGGVADLIASIKMSKIPIICICNDRYSQKLKSLVNYCLLLNFRKPTKQQMGKRLMEIAKKEGLQAQENAMEELAERVHGDIRMALNHLQYMSLSQSVVKYDDIRQRLNSSTKDEDISPFTAVDKLFGFNGGRLRMDERIDLSMSDPDLVPLIIQENYINYRPITVGKDDSGVKRMNFLARAAESIADADIVNVQIRRYRQWQLSQAACLSSSIVPAALMHGNREILEAGERNFNRFGGWLGKYSTTNKNIRLLEDAHSHILASQQANLDRESLRLDYLTLLLRQLTDPLKTMPKDEAVQKVVEFMDTYSLSQEDFDTIVELSKFKGHPNPMDGIQPAVKSALTKAYKQGSSSRVVRAADLVNIPGMKKPLKKRVAAILEPVGESLPEENGVASSEGDEEDSSDAENNDELVPGDTKPKLDLQSDKKKGIQVQLDLKSNGNGLNSKKMPAGRSKASGSAGKAAGGSGGKRKR
